Laboratory results as given in the supplement of paper PMC8728848.
Some of the results follow.

Key:
Test in all cases: glycan array binding signal (z-score within array); higher = stronger binding
Conditions in all cases: glycan notation: IUPAC condensed, linker removed
[1] = biological target: Fuc(a1-2)[GalNAc(a1-3)]Gal(b1-3)GlcNAc(b1-3)GalNAc
Method in brief: (§1)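 Columns mapping to the same glycan were averaged after glycan names were converted to IUPAC-condensed notation. The data come from 3228 arrays in the Consortium for Functional Glycomics database, limited to those with an available protein sequence. Binding is reported as a within-array Z-score averaged across arrays of one protein sequence and across linkers.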

[2] = biological target: Fuc(a1-2)[GalNAc(a1-3)]Gal(b1-3)GlcNAc(b1-6)GalNAc
Method in brief: as §1

[3] = biological target: Fuc(a1-2)[GalNAc(a1-3)]Gal(b1-4)Glc
Method in brief: as §1

[4] = biological target: Fuc(a1-2)[GalNAc(a1-3)]Gal(b1-4)GlcNAc
Method in brief: as §1

[5] = biological target: Fuc(a1-2)[GalNAc(a1-3)]Gal(b1-4)GlcNAc(b1-2)Man
Method in brief: as §1

[6] = biological target: Fuc(a1-2)[GalNAc(a1-3)]Gal(b1-4)GlcNAc(b1-2)Man(a1-3)[Fuc(a1-2)[GalNAc(a1-3)]Gal(b1-4)GlcNAc(b1-2)Man(a1-6)]Man(b1-4)GlcNAc(b1-4)GlcNAc
Method in brief: as §1

[7] = biological target: Fuc(a1-2)[GalNAc(a1-3)]Gal(b1-4)GlcNAc(b1-2)Man(a1-3)[Fuc(a1-2)[GalNAc(a1-3)]Gal(b1-4)GlcNAc(b1-2)Man(a1-6)]Man(b1-4)GlcNAc(b1-4)[Fuc(a1-6)]GlcNAc
Method in brief: as §1

[8] = biological target: Fuc(a1-2)[GalNAc(a1-3)]Gal(b1-4)GlcNAc(b1-3)Gal(b1-4)GlcNAc
Method in brief: as §1

[9] = biological target: Fuc(a1-2)[GalNAc(a1-3)]Gal(b1-4)GlcNAc(b1-3)Gal(b1-4)GlcNAc(b1-3)Gal(b1-4)GlcNAc
Method in brief: as §1

[10] = biological target: Fuc(a1-2)[GalNAc(a1-3)]Gal(b1-4)GlcNAc(b1-3)GalNAc
Method in brief: as §1

[11] = biological target: Fuc(a1-2)[GalNAc(a1-3)]Gal(b1-4)GlcNAc(b1-3)[Fuc(a1-2)[GalNAc(a1-3)]Gal(b1-4)GlcNAc(b1-6)]GalNAc
Method in brief: as §1

[12] = biological target: Fuc(a1-2)[GalNAc(a1-3)]Gal(b1-4)GlcNAc(b1-6)GalNAc
Method in brief: as §1

[13] = biological target: Fuc(a1-2)[GalNAc(a1-3)]Gal(b1-4)[Fuc(a1-3)]GlcNAc
Method in brief: as §1

[14] = biological target: Fuc(a1-2)[GalNAc(a1-3)]Gal(b1-4)[Fuc(a1-3)]GlcNAc(b1-3)GalNAc
Method in brief: as §1

[15] = biological target: Fuc(a1-2)[GalNAc(a1-4)]Gal(b1-4)GlcNAc
Method in brief: as §1

[16] = biological target: Fuc(a1-2)[GalNAc(b1-3)]Gal
Method in brief: as §1

Fuc(a1-3)GlcNAc = biological target: Fuc(a1-3)GlcNAc
Method in brief: as §1

[17] = biological target: Fuc(a1-3)[Gal(b1-4)]Glc6S
Method in brief: as §1

[18] = biological target: Fuc(a1-3)[Gal(b1-4)]GlcNAc
Method in brief: as §1

[19] = biological target: Fuc(a1-3)[Gal(b1-4)]GlcNAc(b1-2)Man
Method in brief: as §1

[20] = biological target: Fuc(a1-3)[Gal(b1-4)]GlcNAc(b1-2)Man(a1-3)[Fuc(a1-3)[Gal(b1-4)]GlcNAc(b1-2)Man(a1-6)]Man(b1-4)GlcNAc(b1-4)GlcNAc
Method in brief: as §1

[21] = biological target: Fuc(a1-3)[Gal(b1-4)]GlcNAc(b1-2)Man(a1-3)[Fuc(a1-3)[Gal(b1-4)]GlcNAc(b1-2)Man(a1-6)]Man(b1-4)GlcNAc(b1-4)[Fuc(a1-6)]GlcNAc
Method in brief: as §1

[22] = biological target: Fuc(a1-3)[Gal(b1-4)]GlcNAc(b1-3)Gal(b1-3)[Fuc(a1-4)]GlcNAc
Method in brief: as §1

[23] = biological target: Fuc(a1-3)[Gal(b1-4)]GlcNAc(b1-3)Gal(b1-4)[Fuc(a1-3)]GlcNAc
Method in brief: as §1

[24] = biological target: Fuc(a1-3)[Gal(b1-4)]GlcNAc(b1-3)Gal(b1-4)[Fuc(a1-3)]GlcNAc(b1-3)Gal(b1-4)[Fuc(a1-3)]GlcNAc
Method in brief: as §1

[25] = biological target: Fuc(a1-3)[Gal(b1-4)]GlcNAc(b1-3)GalNAc
Method in brief: as §1

[26] = biological target: Fuc(a1-3)[Gal(b1-4)]GlcNAc(b1-6)GalNAc
Method in brief: as §1

[27] = biological target: Fuc(a1-3)[Gal(b1-4)]GlcNAc(b1-6)[Gal(b1-3)GlcNAc(b1-3)]Gal(b1-4)Glc
Method in brief: as §1

[28] = biological target: Fuc(a1-3)[Gal(b1-4)]GlcNAc6S
Method in brief: as §1

[29] = biological target: Fuc(a1-3)[Gal3S(b1-4)]Glc
Method in brief: as §1

[30] = biological target: Fuc(a1-3)[Gal3S(b1-4)]GlcNAc
Method in brief: as §1

[31] = biological target: Fuc(a1-3)[Gal3S(b1-4)]GlcNAc6S
Method in brief: as §1

[32] = biological target: Fuc(a1-3)[GalNAc(b1-4)]GlcNAc
Method in brief: as §1

[33] = biological target: Fuc(a1-3)[GalNAc(b1-4)]GlcNAc6S
Method in brief: as §1

Fuc(a1-4)GlcNAc = biological target: Fuc(a1-4)GlcNAc
Method in brief: as §1

Fuc(b1-3)GlcNAc = biological target: Fuc(b1-3)GlcNAc
Method in brief: as §1

Gal(a1-2)Gal = biological target: Gal(a1-2)Gal
Method in brief: as §1

B1: Epa1 (Candida glabrata) (protein)
chain: MGSSHHHHHHSSGLVPRGSHMTSSNDISLASKDPTTFPLGCSPDITTPKKGLSMELYSYDFRKKGSYPCWDAAYLDPNYPRTGYKSHRLLAKVDGVTGNINFYYHATKGCTPQLGHLPASYNYPKPLTMTNFTMLLYGYFRPKVTGFHTFTISADDLLFVNFGAGNAFDCCRRDSSADHFGNYQAYAIWGSKTAKDELTVHLDAGVYYPIRLFYNNREYDGALSFTFKTESNENTVSDFSEYFFSLDDTEEGCPGLISYD
[1]
  glycan array binding signal (z-score): -0.21
[2]
  glycan array binding signal (z-score): -0.323
[3]
  glycan array binding signal (z-score): -0.325
[4]
  glycan array binding signal (z-score): -0.331
[5]
  glycan array binding signal (z-score): -0.295
[6]
  glycan array binding signal (z-score): -0.25
[7]
  glycan array binding signal (z-score): -0.312
[8]
  glycan array binding signal (z-score): -0.336
[9]
  glycan array binding signal (z-score): -0.205
[10]
  glycan array binding signal (z-score): -0.327
[11]
  glycan array binding signal (z-score): -0.23
[12]
  glycan array binding signal (z-score): -0.16
[13]
  glycan array binding signal (z-score): -0.262
[14]
  glycan array binding signal (z-score): -0.296
[15]
  glycan array binding signal (z-score): -0.299
[16]
  glycan array binding signal (z-score): -0.332
Fuc(a1-3)GlcNAc
  glycan array binding signal (z-score): -0.259
[17]
  glycan array binding signal (z-score): -0.182
[18]
  glycan array binding signal (z-score): -0.326
[19]
  glycan array binding signal (z-score): -0.289
[20]
  glycan array binding signal (z-score): -0.295
[21]
  glycan array binding signal (z-score): -0.149
[22]
  glycan array binding signal (z-score): -0.283
[23]
  glycan array binding signal (z-score): -0.313
[24]
  glycan array binding signal (z-score): -0.204
[25]
  glycan array binding signal (z-score): -0.284
[26]
  glycan array binding signal (z-score): -0.129
[27]
  glycan array binding signal (z-score): -0.12
[28]
  glycan array binding signal (z-score): 0.025
[29]
  glycan array binding signal (z-score): -0.276
[30]
  glycan array binding signal (z-score): -0.259
[31]
  glycan array binding signal (z-score): -0.229
[32]
  glycan array binding signal (z-score): -0.299
[33]
  glycan array binding signal (z-score): -0.352
Fuc(a1-4)GlcNAc
  glycan array binding signal (z-score): -0.292
Fuc(b1-3)GlcNAc
  glycan array binding signal (z-score): -0.306
Gal(a1-2)Gal
  glycan array binding signal (z-score): -0.323
